# PubChem BioAssay AID488969 (Vanderbilt High Throughput Screening Facility, 2010)
# Whole data set: some 110,000 compounds, median “z-score” near -0.1, cut for the highest 2% near 2. The list shows a part of the results.
# Biological target: Metabotropic glutamate receptor 8 (Rattus norvegicus) (UniProt P70579)
# Assay: rat mGluR8 modulators via GIRK flux, primary screen, cell-based, thallium flux, HTS (AID 488969)
# Conditions: HEK293 rat mGluR8, GIRK (G protein-gated inwardly rectifying potassium channel) thallium flux, FluoZin2; at 10 µM; stronger effect = higher value; submaximal glutamate (EC20) added with thallium
# Chain of UniProt P70579 (P70579 whole entry, looked up): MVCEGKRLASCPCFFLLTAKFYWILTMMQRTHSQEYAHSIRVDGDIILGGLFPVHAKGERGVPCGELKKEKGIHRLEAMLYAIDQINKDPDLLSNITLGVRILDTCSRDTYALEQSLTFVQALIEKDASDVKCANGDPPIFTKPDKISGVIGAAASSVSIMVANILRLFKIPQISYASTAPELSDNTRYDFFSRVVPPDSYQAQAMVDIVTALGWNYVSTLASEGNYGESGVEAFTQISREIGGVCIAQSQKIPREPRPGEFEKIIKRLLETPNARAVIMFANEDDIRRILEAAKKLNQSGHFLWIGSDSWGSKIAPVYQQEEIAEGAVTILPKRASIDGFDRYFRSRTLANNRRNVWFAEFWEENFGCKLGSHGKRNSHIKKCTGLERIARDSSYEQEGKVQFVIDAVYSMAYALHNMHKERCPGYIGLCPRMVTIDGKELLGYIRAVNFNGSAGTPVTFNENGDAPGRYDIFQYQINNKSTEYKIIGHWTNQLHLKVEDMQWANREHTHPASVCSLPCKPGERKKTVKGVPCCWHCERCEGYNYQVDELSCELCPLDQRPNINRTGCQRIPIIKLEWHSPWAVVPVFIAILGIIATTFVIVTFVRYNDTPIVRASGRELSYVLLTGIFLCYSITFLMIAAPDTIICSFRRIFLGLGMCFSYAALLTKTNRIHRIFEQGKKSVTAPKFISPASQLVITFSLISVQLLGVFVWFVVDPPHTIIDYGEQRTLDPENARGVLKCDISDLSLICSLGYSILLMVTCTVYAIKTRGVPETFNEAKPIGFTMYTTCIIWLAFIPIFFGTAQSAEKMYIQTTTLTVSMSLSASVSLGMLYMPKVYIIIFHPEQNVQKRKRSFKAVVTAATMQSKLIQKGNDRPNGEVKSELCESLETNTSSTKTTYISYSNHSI
row,SMILES,z-score
1,COc1nc(NCC(C)C)nc(Oc2ccc(OCc3ccccc3)nn2)n1,-0.19
2,N#CC(C(=O)Nc1cccc(Cl)c1)=C1Nc2ccccc2N1,0.00324
3,COCCNCCOCCOc1ccc(Cl)c(C)c1,-0.271
4,O=C(NCc1cccnc1)c1cc(Sc2ccc(F)cc2F)nc2ccccc12,-0.458
5,CCCCC1=C([O-])C2N=CC=CC2=[N+](c2ccccn2)C1=O (configuration not stated),-0.104
6,Cn1cnc([N+](=O)[O-])c1Sc1ncccc1N,-0.104
7,S=C(Nc1ccccc1)N1CCCCCC1,-0.16
8,CCCc1nc2ccc(NC(=O)NCCC(=O)OCC)cc2c(=O)n1Cc1cccc(Cl)c1,0.042
9,O=C(NCc1ccccc1)N[C@@H](Cc1c[nH]c2ccccc12)C(=O)O,-0.0284
10,Cc1ccc(C(=O)c2sc3c(c2N)c(=O)[nH]c(=O)n3CCc2ccccc2)cc1,-0.0339
11,Cc1ccc(NC2=NCC(=O)N2C2CCCC2)c(C)c1,-0.0384
12,O=S(=O)(c1ccc2nc(SCc3cccc(Cl)c3)[nH]c2c1)N1CCOCC1,-0.3
13,C=CCn1c(SCC(=O)N2CCOCC2)nc(O)cc1=O,-0.237
14,C=CCNCCCCOc1ccc(OCC)cc1,0.793
15,CCc1nc(N)c(C#N)c(-c2ccc(OC)c(OC)c2)c1C,0.0142
16,COc1ccc2c(c1)C(c1ccc([N+](=O)[O-])cc1)=NNC(c1ccco1)=N2,-0.252
17,CCc1cc(C(=O)N=Nc2c(O)[nH]c3ccc([N+](=O)[O-])cc23)c2ccccc2n1,-0.481
18,CC(C)C[C@H](NC(=O)Nc1cccc(C(F)(F)F)c1)C(=O)O,-0.499
19,Cc1ccc(C(=O)Oc2csc(=S)n2C(=O)c2ccc(C)cc2)cc1,0.28

row,SMILES,z-score
1,CCCCN1C2CCCC1CC(NC(=O)N(C(C)C)C(C)C)C2 (configuration not stated),-0.0384
2,COc1cc(CC(=O)OCC(=O)Nc2cc([N+](=O)[O-])ccc2F)cc(OC)c1OC,-0.0237
3,Cc1cccc(NC(=O)Cn2nnc(C(=O)NCc3cccs3)c2N)c1C,-0.0432
4,COc1cc2[nH]c(=O)n(CCCC(=O)NCCc3ccccc3)c(=O)c2cc1OC,0.133
5,CCCCOCCCNC(=O)CC(C)c1ccccc1 (configuration not stated),-0.578
6,CC1CC(=O)NN=C1c1ccc(NCCO)c([N+](=O)[O-])c1 (configuration not stated),0.315
7,Cc1cc(C)c(C#N)c(SCC(=O)Nc2ccc3c(c2)OCO3)n1,0.149
8,Cc1csc2nc(CNC(=O)c3ccco3)cn12,0.19
9,CC1CCC(NC(=O)c2cc3c(=O)n(C)c4ccccc4c3n2C)CC1 (configuration not stated),-0.698
10,CCCn1c2ccccc2c2nc3ccccc3nc21,-0.228
11,CCC(CC)c1nnc(NC(=O)CS(=O)(=O)Cc2ccccc2)s1,-0.217
12,O=c1[nH]c2c(c(=O)n1Cc1ccccc1)CCC2,-0.106
13,CCOC(=O)/C(C#N)=C1/SC(CC)C(=O)N1c1ccc(C)cc1 (configuration not stated),-0.0471
14,CC(C)Oc1nnnn1-c1ccccc1,-0.0267
15,CCCNC(=O)NC(=O)COC(=O)CC(NC(N)=O)c1ccc(Cl)cc1 (configuration not stated),-0.33
16,COc1cccc2cc(C(=O)N(C)C)c(=O)oc12,-0.0473
17,OC(CN1CCN(c2ccccn2)CC1)Cn1c2ccccc2c2ccccc21 (configuration not stated),0.599
18,N#CC1=C(N2CCCCC2)c2cc3c(n2C1=O)CCCC3,-1.02
19,C=C1C2(C(=O)Nc3nccs3)CCC(C2)C1(C)C (configuration not stated),-0.355

row,SMILES,z-score
1,Fc1ccc(/C=C2\CCCC3=C2NC(=S)NC3c2ccc(F)cc2)cc1 (configuration not stated),-0.0195
2,Cc1c(Cl)cccc1NC(=O)COC(=O)CCc1nc2ccccc2n1-c1ccccc1,-0.254
3,O=[N+]([O-])c1ccc2nc(-c3ccc(Cl)cc3)n(OCc3ccccc3)c2c1,-0.249
4,CCCC(C(=O)NC1CCCCC1)N(Cc1ccco1)C(=O)CNS(=O)(=O)c1ccccc1 (configuration not stated),-0.578
5,CCOCCCNS(=O)(=O)c1ccc(OC)c(Cl)c1Cl,-0.0705
6,O=C(NC12CC3CC(CC(C3)C1)C2)c1cncc(O)c1,-0.626
7,CN(C)S(=O)(=O)c1cccc(NC(=O)COC(=O)CCc2nc3ccccc3s2)c1,-0.757
8,COc1cc(C)c(N)cc1C(C)C,2.12
9,COc1ccc(-c2csc(NC3=NCCCCC3)n2)cc1,-0.262
10,O=C(c1ccc(OCC2CCCO2)cc1)N1CCN(c2ccccc2)CC1 (configuration not stated),-0.525
11,Cc1c(NC(=O)C2CC=CCC2C(=O)O)c(=O)n(-c2ccccc2)n1C (configuration not stated),2.16
12,O=C(NC(N1CCCC1)C(Cl)(Cl)Cl)c1ccccc1 (configuration not stated),-0.174
13,CCN1CCN(C(=S)NCCc2ccccc2)CC1,0.392
14,CCc1ccc(OCC(=O)O/N=C(\N)Cc2ccc([N+](=O)[O-])cc2)cc1,0.0339
15,CC(C)C(=O)Nc1ccc(NC(=O)c2cccc(F)c2)cn1,0.794
16,COc1ccc(C(=O)Nc2cccc(-c3cc4ccccc4oc3=O)c2)cc1[N+](=O)[O-],-0.159
17,Cc1cc(NC(=O)CN2CCCC(C)C2)n(-c2nc3ccccc3s2)n1 (configuration not stated),-0.272
18,COc1ccc(CC(=O)Nc2ccc(S(=O)(=O)Nc3nccc(C)n3)cc2)cc1,0.14
19,C=C(C)COc1ccc(-c2[nH]ncc2Oc2cccc(OC)c2)c(O)c1,0.82
